Measured values reported in patent US20130109581A1, “POSITIVELY CHARGED SPECIES AS BINDING REAGENTS IN THE SEPARATION OF PROTEIN AGGREGATES FROM MONOMERS” (priority 2009, published 2013).

Molecular target: Abeta42 globulomer (Homo sapiens, UniProt P05067)
Design: beta amyloid (1-42) was monomerized with incubation in hexafluoroisopropanol
Description: Selected peptides from Table 15 were conjugated to DYNAL beads using the linker Ac-Cys-Lys-Ahx-Ahx at the amino terminus of the peptides, following the same protocol as described above. The charge density of these reagents on beads was as low as about 4000 nmol/m^2, for the peptides with only one positively charged residue, and proportionally higher for the peptides with more than one positively charged residues. […] All of the sequences listed in table 15 that were tested on beads were validated to bind Abeta42 globulomer specifically when coated to beads (Table 15 and data not shown)

Row | Sequence | Specifically bound Aβ42 globulomers on beads?
1 | IRYVTHQYILWP | Yes
2 | KIIKWGIFWMQG | Yes
3 | YRHRWEVMLWWP | Yes
4 | YQSWWFFYFKLA | Yes
5 | KLSLIWLHTHWH | Yes
6 | LTAVKKVKAPTR | Yes
7 | KFYLYAIDTHRM | Yes
8 | WAVKLFTFFMFH | Yes
9 | LIPIRKKYFFKL | Yes
10 | YNKIGVVRLFSE | Yes
11 | MKFMKMHNKKRY | Yes
